# Data from PMC4336329 (PLoS ONE, 2015).
# About 14,000 (4.5%) of roughly 310,000 compounds showed an effect of 50% or more. Effects have a minus sign here. Some of the results follow.
# Target: human ether-à-go-go-related gene (hERG) potassium channel (human, UniProt Q12809)
# Assay: primary screen, population patch clamp on CHO cells stably expressing hERG
# 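Note: peak tail current of the secondary pulse compared with the same well before compound.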
# Sequence of human ether-à-go-go-related gene (hERG) potassium channel (Q12809 whole entry, looked up): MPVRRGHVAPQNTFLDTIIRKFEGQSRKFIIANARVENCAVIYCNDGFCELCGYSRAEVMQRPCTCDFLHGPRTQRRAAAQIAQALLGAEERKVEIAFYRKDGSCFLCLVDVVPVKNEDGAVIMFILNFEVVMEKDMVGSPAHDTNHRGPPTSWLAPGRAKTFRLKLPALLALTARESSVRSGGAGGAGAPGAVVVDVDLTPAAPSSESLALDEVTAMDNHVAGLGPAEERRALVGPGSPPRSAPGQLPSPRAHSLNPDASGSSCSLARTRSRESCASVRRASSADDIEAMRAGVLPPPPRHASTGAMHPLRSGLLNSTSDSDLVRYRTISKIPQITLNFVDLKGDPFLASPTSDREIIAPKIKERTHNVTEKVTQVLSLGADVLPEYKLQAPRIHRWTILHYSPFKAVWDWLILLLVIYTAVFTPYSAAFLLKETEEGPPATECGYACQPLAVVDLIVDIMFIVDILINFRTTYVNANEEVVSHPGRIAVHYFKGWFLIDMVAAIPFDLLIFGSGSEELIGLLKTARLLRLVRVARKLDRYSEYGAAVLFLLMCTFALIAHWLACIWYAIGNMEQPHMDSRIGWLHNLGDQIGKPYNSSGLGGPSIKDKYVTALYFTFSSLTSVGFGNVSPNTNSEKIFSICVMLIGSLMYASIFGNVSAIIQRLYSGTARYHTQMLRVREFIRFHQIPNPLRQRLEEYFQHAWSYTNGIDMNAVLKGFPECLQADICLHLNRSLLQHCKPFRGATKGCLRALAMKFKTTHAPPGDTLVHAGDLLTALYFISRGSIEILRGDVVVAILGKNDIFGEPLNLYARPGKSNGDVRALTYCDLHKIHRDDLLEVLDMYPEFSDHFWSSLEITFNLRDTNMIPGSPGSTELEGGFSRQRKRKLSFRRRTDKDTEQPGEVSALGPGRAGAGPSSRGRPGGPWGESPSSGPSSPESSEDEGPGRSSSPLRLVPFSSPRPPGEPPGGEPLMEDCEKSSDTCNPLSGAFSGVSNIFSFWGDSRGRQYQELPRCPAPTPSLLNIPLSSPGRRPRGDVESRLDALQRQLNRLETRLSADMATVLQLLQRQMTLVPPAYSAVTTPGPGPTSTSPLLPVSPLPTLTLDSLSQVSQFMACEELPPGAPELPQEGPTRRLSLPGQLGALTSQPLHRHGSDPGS
row,Compound,"hERG current change (%, negative = inhibition) at 10uM [%]"
1,CCC(C)NS(=O)(=O)c1ccc(OCC(=O)NCc2ccco2)cc1 (centres unmarked),-3.2
2,COc1cccc(Cn2cnc3c([N+](=O)[O-])c(C)c(C)cc32)c1,-14.5
3,COc1cc(NS(=O)(=O)c2ccc(NC(=S)Nc3ccccc3)cc2)nc(OC)n1,2.01
4,C=CCNC(=O)CC(=O)N/N=C/c1ccc(C(=O)OC)cc1,9.83
5,COc1ccc(C2C3=C(NCCN=C3c3ccccc3)C(=O)N2c2ccccc2)c(OC)c1 (centres unmarked),-2.87
6,Cc1cccc(C)c1NC(=O)N1CCCC1C(=O)Nc1ccc(-n2cnnn2)cc1 (centres unmarked),-35.8
7,COc1ccc(-c2ccc(CCC(=O)O)n2NC(N)=O)cc1,7.52
8,Cc1ccc(-c2cn(S(=O)(=O)c3cccc4nsnc34)nc2N)cc1,-0.598
9,COCCn1c(C)cc(C(=O)CSc2nnc(C)s2)c1C,1.57
10,O=C1C2C(C(=O)N1Cc1cccnc1)C1C=CC2C12CC2 (centres unmarked),-1.16
11,Cc1ccnc(N2CCN(C(=O)CSc3nc4ccccc4nc3N3CCCCC3)CC2)c1,-12.2
12,COc1ccc(CC(=O)Oc2ccc(C)cc2Br)cc1OC,3.25
13,N#Cc1nnn(Cc2ccccc2)c1N,21.8
14,CCC1CCC(C(=O)NC(C(=O)NCCCN2CCCCC2C)C(C)C)CC1 (centres unmarked),-15.3
15,COc1ccc(/C=N/S(=O)(=O)c2ccccc2)cc1OC,16.1
16,O=C(NCc1ccc(Cl)cc1Cl)C(=O)N1CCCCC1,7.36
17,COc1ccc(C2=NS(=O)(=O)N(C)C(C(=O)Nc3ccc(OC)c(OC)c3)=C2)cc1,-11.9
18,CCCOc1ccc(-c2nc(C#N)c(NCCCn3ccnc3)o2)cc1,2.34
19,COc1cc(C(=O)NCCc2ccc3c(c2)OCCO3)ccc1OCC(=O)N1CCOCC1,-8.84
20,Nc1nc(NC(=O)/C=C\C(=O)O)nn1-c1ccccc1,27.8
21,O=C(O)c1cccc(S(=O)(=O)Nc2ccc3[nH]c(=O)[nH]c3c2)c1,6.79
22,CCNC(=O)c1cc(S(=O)(=O)N2CCSCC2)ccc1OC,14.8

row,Compound,"hERG current change (%, negative = inhibition) at 10uM [%]"
1,COc1ccc(-c2csc(N(CCCN3CCOCC3)C(=O)CCl)n2)cc1.Cl,3.28
2,C[N+](C)(C)CCN1C(=O)CSC1=O.[I-],10.3
3,O=C(NCc1cccnc1)Nc1ccccc1C(F)(F)F,-1.92
4,COc1ccc(/C=C/C(=O)NC(CCSC)C(=O)O)cc1 (centres unmarked),-6.55
5,COc1ccc(O)c(/C=N/NC(=S)Nc2cccc(S(=O)(=O)N(C)C)c2)c1,-10.5
6,Cc1c(C=O)cnn1CCC(=O)O,4.76
7,O=C(CN1CCN(c2ccc(O)cc2)CC1)NC(c1ccccc1)c1ccccc1,-50.8
8,COc1cc(F)c(C2=CC(=O)C[C@H](c3ccc(F)cc3)C2)cc1F,21
9,COc1ccccc1Cn1c(SCC(=O)C(C)(C)C)nc2cc(C(=O)N3CCC4(CC3)OCCO4)ccc2c1=O,-3.73
10,COc1ccccc1-n1nnnc1SCC(=O)N(C)C1CCS(=O)(=O)C1 (centres unmarked),-0.137
11,O=C(/C=C/c1c(F)cccc1Cl)Nc1cccnc1,23.4
12,C/C(=C\c1ccc(N)cc1)c1nc2ccccc2[nH]1,3.37
13,Cc1cc2nc(-c3ccco3)cc(C(F)(F)F)n2n1,-5.82
14,CCCn1c(C(C)NS(=O)(=O)c2ccccc2)n[nH]c1=S (centres unmarked),17.7
15,COc1ccccc1-n1c(N)c(C(N)=O)sc1=S,19.3
16,Cc1ccc(NS(=O)(=O)c2cccc(C(=O)NCC(c3cccs3)N(C)C)c2)cc1 (centres unmarked),-19.4
17,CC(C)c1ccc(NC(=S)Nc2ccc(OC(F)(F)F)cc2)cc1.Cl,17.8
18,O=C(NCCc1nnc2ccc(NCc3ccc(F)cc3)nn12)c1ccccc1,-29
19,Cc1oc2cc3oc(=O)c(CCC(=O)NCCCC(=O)O)c(C)c3cc2c1C,29.3
20,COc1ccc(CC2S/C(=N/N=C/c3ccc(O)cc3)NC2=O)cc1 (centres unmarked),2.95
21,C=CCn1c(Cc2ccccc2)n[nH]c1=S,11.7
22,N#CCC(=O)N/N=C/c1ccccc1Cl,6.55
